Measured values: PubChem BioAssay AID686970 (National Center for Advancing Translational Sciences (NCATS), 2013)
The campaign covered roughly 360,000 compounds. About 6,000 (1.7%) were called active. The inconclusive results got no clear call from the source; some entries with a clear call stand among them for comparison. Calls follow the shape of the dose curve; as a rule, active = well fitted cell-killing curve with a large enough effect; inconclusive = small, poorly fitted or top-dose-only effect, or effect the other way; inactive = flat fitted curve, though single readings scatter. Potencies of inconclusive entries are left out as doubtful fits.
Potency is read from the fitted curve at half-maximal effect; tags tell the direction and shape of the fitted curve.

Assay: qHTS for induction of synthetic lethality in tumor cells producing 2HG: qHTS for the HT-1080-NT fibrosarcoma cell line;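 also: NT is the 2HG producing partner of a matched IDH1 knockdown line; nearly all actives have a fitted effect of over 55% in size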;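 as to activity, negative = less viability: 0% = DMSO-treated cells and -100% = media-only wells without cells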
Conditions: HT-1080-NT fibrosarcoma viability, CellTiter-Glo ATP luminescence, 48 h; activity, negative = less viability: at 46.1 µM (top of the series) unless noted
In short: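 Compounds were tested in concentration-response format on HT-1080-NT cells for 48 hours at 37 degrees C. Cell viability came from CellTiter-Glo luminescence; curves were classified by r2, response magnitude and activity.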
In the case of `Cn1c(=O)cc(OCCCC(=O)NC2CCCC2)c2ccccc21`, the Potency was inconclusive [cytotoxic, single point].
For `Cc1cccc2cc(C#N)c(NCCNC(=S)NCCCN3CCOCC3)nc12`, the Potency was inconclusive [cytotoxic, single point].
With `CN1OC[C@@H]2CN(Cc3ccc(Cl)cc3)[C@H](c3ccc(-n4ccnc4)cc3)C[C@@H]21` the Potency was inconclusive [cytotoxic, single point].
In the case of `O=C(NCCCNc1ccc(C(F)(F)F)cc1[N+](=O)[O-])c1ccc(Cl)cc1`, the Potency was inconclusive [cytotoxic, single point].
With `O=C(Nc1ccc2c(c1)oc1ccccc12)c1ccc(Br)o1` the Potency was inconclusive [cytotoxic, single point].
With `O=C(c1ccccc1OCc1ccccc1Br)N1CCN(c2ncccn2)CC1` the Potency was inconclusive [cytotoxic, single point].
In the case of `Cc1ccc(C2Nc3ccccc3-c3nc4ccccc4n32)o1` (centres undefined), the Potency was inconclusive [cytotoxic, single point].
For `CN(CC(=O)Nc1cccc(F)c1)C(=O)CCCN1C(=O)c2cccc3cccc(c23)C1=O`, the “activity, negative = less viability” value was inactive: -10%.
For `O=C(Nc1cccnc1)c1cc(-c2ccc(Br)cc2)on1`, the Potency was inconclusive [rising, single point].
In the case of `O=C(CNC(=S)N(Cc1ccccc1)Cc1ccccc1F)NCc1ccc(Cl)cc1`, the Potency was inconclusive [cytotoxic, single point].
For `O=c1cccccc1NCc1ccccc1`, the “activity, negative = less viability” value was inactive: 2.35%.
With `OC(c1ccc(Cl)c(F)c1)c1ncc(-c2ccc(Oc3ccccc3)cc2)[nH]1` (centres undefined) the Potency was inconclusive [cytotoxic, single point].
For `O=C1CC(c2cccc([N+](=O)[O-])c2)c2cc3c(cc2N1)CCC3` (centres undefined), the Potency was inconclusive [cytotoxic, single point].
In the case of `O=C(Nc1ccc(N2CCN(C(=O)c3ccccc3)CC2)c(Cl)c1)c1ccc(Br)o1`, the Potency was active: 7.08 µM.
In the case of `Cc1cc(C(=O)C(C)Sc2cccc[n+]2[O-])c(C)n1-c1ccc(Cl)cc1` (centres undefined), the Potency was inconclusive [cytotoxic, partial curve].
In the case of `COc1ccc(CNC(=O)CNC(=O)c2sc3ccccc3c2Cl)cc1OC`, the Potency was inconclusive [cytotoxic, single point].
In the case of `COc1ccc(C(C(=O)NCc2ccccc2)n2c(=O)c(-c3cc4ccccc4[nH]3)nc3ccccc32)cc1` (centres undefined), the Potency was inconclusive [cytotoxic, single point].
For `O=C(NCC1CCCO1)C1CCCN1C(=O)Nc1ccc(Cl)cc1` (centres undefined), the “activity, negative = less viability” value was inactive: 2.32%.
For `COC(=O)c1nn(-c2ccc3c(c2)CCN3C(C)=O)cc1O`, the Potency was inconclusive [cytotoxic, single point].
For `Cc1c(C(=O)N2CCN(Cc3ccc4c(c3)OCO4)CC2)sc2ncnc(N3CCN(c4ccccc4F)CC3)c12`, the Potency was inconclusive [cytotoxic, single point].
For `O=C(c1cccs1)N(C(=O)c1cccs1)c1ccc(Br)cn1`, the Potency was inconclusive [cytotoxic, single point].
With `Cc1ccc(S(=O)(=O)c2nc(S(C)(=O)=O)sc2N2CCCCC2C)cc1` (centres undefined) the Potency was inconclusive [cytotoxic, single point].
For `CCN(CC)C1=CC(=[N+]2CCCC2)CC(C)(C)C1`, the Potency was inconclusive [cytotoxic, full curve, poor fit].
With `CC(=O)Nc1ccc(-c2csc(NC(=O)Nc3ccccc3)n2)cc1` the Potency was inconclusive [cytotoxic, single point].
With `CC(NC(=O)Cc1cccs1)C(c1cccs1)N1CCN(c2ccccc2F)CC1` (centres undefined) the Potency was inconclusive [cytotoxic, single point].
For `Cc1cccc(CN2CCC(CNC(=O)Nc3ccc(F)c(Cl)c3)CC2)c1`, the Potency was active: 16.4 µM.
In the case of `COc1ccc(CC(=O)N[C@@H]2c3cc(OC)c(OC)cc3C[C@H]2O)cc1`, the “activity, negative = less viability” value was inactive: -1.91%.
In the case of `COc1cc(OC)cc(C2=Cc3ccccc3C(CC(C)=O)N2c2ccc(C#CC3(N)CCCCC3)cc2)c1` (centres undefined), the Potency was active: 14.6 µM.
In the case of `CCn1nc(C)c(Br)c1Nc1ccc(Br)cc1`, the “activity, negative = less viability” value was inactive: -4.72%.
In the case of `O=C(NCc1ccccc1)N1CCC(n2cnc3cc(F)ccc32)CC1`, the “activity, negative = less viability” value was inactive: 8.4%.
With `C#CCOCCOCCOCCNc1nc(N2CCN(C(=O)CCCCCCCCCCNC(=O)[C@H](CCCCN)n3cc(C)nn3)CC2)nc(N2CCN(C(=O)CCCCCCCCCCNC(=O)[C@H](CO)n3cc(CCCSC)nn3)CC2)n1` the Potency was inconclusive [cytotoxic, single point].
For `Cc1c(C#N)c(NC(=O)C(C)C)n(Cc2ccccc2)c1C`, the “activity, negative = less viability” value was inactive: -1.05%.
For `Cc1nc(N2CCN(C)CC2)c2cc(-c3ccccc3)sc2n1`, the Potency was inconclusive [cytotoxic, single point].
For `CC(C)(C)OC(=O)CNC(=O)c1[nH]cnc1C(=O)Nc1ccc(CNC(=O)OC(C)(C)C)cc1`, the Potency was inconclusive [cytotoxic, single point].
With `CCc1ccc(NC(=O)NCC2CCN(Cc3cccc(Cl)c3)CC2)cc1` the Potency was inconclusive [cytotoxic, single point].
With `CC12CC3CC(C)(C1)CC(C(=O)NC(=S)N1CCCCC1)(C3)C2` the Potency was inconclusive [cytotoxic, single point].
For `O=C(CSc1nc2ncccc2[nH]1)NCCc1ccccc1`, the “activity, negative = less viability” value was inactive: 4.51%.
For `COc1ccc(/C(N)=N/OC(=O)c2ccc3c(c2)OCO3)cc1OC`, the Potency was inconclusive [cytotoxic, single point].
For `Cn1nnc2cc(C(=O)N3CCN(c4ccccn4)CC3)ccc21`, the “activity, negative = less viability” value was inactive: -4.37%.
For `COc1ccc(-c2cc(C(F)(F)F)nc(SCCC(=O)N3CCCC3)n2)cc1`, the “activity, negative = less viability” value was inactive: 12.5%.
In the case of `CCCC(=O)Oc1c(S(=O)(=O)c2ccc(C)cc2)c(C)nn1C(C)(C)C`, the Potency was inconclusive [cytotoxic, single point].
In the case of `O=S(=O)(NCc1ccc(F)cc1)c1ccccc1Br`, the Potency was inconclusive [rising, single point].
In the case of `N#CC1=C(N)Oc2n[nH]c(-c3cccnc3)c2C1c1ccc([N+](=O)[O-])o1` (centres undefined), the Potency was inconclusive [cytotoxic, single point].
In the case of `Cc1ccc(C)c(N2CCN(C(C(=O)NC3CCCC3)c3ccco3)CC2)c1` (centres undefined), the Potency was inconclusive [cytotoxic, single point].
In the case of `Cc1c(/C=N\NC(=O)C2COc3ccccc3O2)c2ccccc2n1C` (centres undefined), the Potency was active: 0.651 µM.
For `CCC(=O)Nc1ccc(SC#N)cc1C`, the Potency was inconclusive [cytotoxic, single point].
With `Cc1ccc(C)c(N2CCN(C(=O)C34CC5CC(C3)CC(n3nnc(C)n3)(C5)C4)CC2)c1` the Potency was inconclusive [cytotoxic, partial curve].
In the case of `CCOC(=O)c1ccc(N2C(=O)C=CC2=O)cc1`, the Potency was inconclusive [cytotoxic, single point].
In the case of `COc1ccc(OC)c(NC(=O)C2(C)CCN2C(C)C)c1` (centres undefined), the activity, negative = less viability was inconclusive: 13.8%.
In the case of `COc1ccccc1NS(=O)(=O)c1ccc(C(=O)N2CC(C)OC(C)C2)cc1` (centres undefined), the “activity, negative = less viability” value was inactive: 5.15%.
In the case of `CC(=O)c1cccc(NC(=S)NC(=O)CC(C)(C)C)c1`, the Potency was inconclusive [cytotoxic, single point].
For `COc1ccc(/C=N/NC(=O)c2ccc(N3CCCC3=O)cc2)cc1`, the “activity, negative = less viability” value was inactive: -11.8%.
In the case of `CC(C)(C)NC(=O)C(c1ccccn1)N(C(=O)C1CSC(=O)C1)c1cccc(F)c1` (centres undefined), the “activity, negative = less viability” value was inactive: 3.38%.
For `Cc1ccc2cccc(CC(=O)NN)c2c1`, the Potency was inconclusive [cytotoxic, single point].
For `Cc1ccc(C(=O)/C=C/c2ccccc2[N+](=O)[O-])cc1`, the Potency was inconclusive [cytotoxic, single point].
With `Cc1ccc(C(=O)N2CCN(c3ccc(F)cc3)CC2)cc1S(=O)(=O)N1CCCCC1` the Potency was inconclusive [cytotoxic, single point].
For `N#C/C(=C\C1CC=CCC1)c1nc2ccccc2[nH]1` (centres undefined), the Potency was inconclusive [cytotoxic, partial curve].
With `O=C(NN=Cc1cccc([N+](=O)[O-])c1)c1cc(-c2cccnc2)nc2ccccc12` the “activity, negative = less viability” value was inactive: -0.171%.
In the case of `CCN(Cc1ccccc1)S(=O)(=O)c1ccc(C(=O)N(CCCN(C)C)c2nc3c(C)c(C)ccc3s2)cc1`, the Potency was inconclusive [cytotoxic, single point].
In the case of `CS(=O)(=O)N(CC(O)Cn1c2ccccc2c2ccccc21)c1ccccc1` (centres undefined), the Potency was inconclusive [cytotoxic, single point].
With `CCC(C)NC(=O)C1CCC(CNS(=O)(=O)c2ccc3c(c2)N(C(C)=O)CCO3)CC1` (centres undefined) the “activity, negative = less viability” value was inactive: 0.0829%.
For `CN(C)CCNC(=O)c1ccc(Cl)c2cc3ccccc3nc12`, the Potency was active: 20.6 µM.
For `c1ccc(CN2CCC(CNc3ncnc4ccccc34)C2)cc1` (centres undefined), the Potency was inconclusive [cytotoxic, single point].
In the case of `O=C1[C@H](Cc2ccccc2)NCCCC[C@H](c2ccc(Cl)cc2)N1Cc1ccccc1`, the Potency was inconclusive [cytotoxic, single point].
For `Cc1ccc(C)c(Nc2nn3c(=O)c4ccc(C(=O)NCc5cccnc5)cc4nc3s2)c1`, the Potency was inconclusive [cytotoxic, full curve, poor fit].
In the case of `COc1ccc(S(=O)(=O)Nc2ccc(NC(C)=O)cc2)cc1Cl`, the “activity, negative = less viability” value was inactive: 0.853%.
In the case of `CCCCCCn1c(NCC)nc2c1c(=O)n(C)c(=O)n2C`, the “activity, negative = less viability” value was inactive: -22.7%.
For `COc1cccc(CNCCNC(=O)c2nonc2N)c1`, the “activity, negative = less viability” value was inactive: -3.98%.
For `O=CN1CCN(C(=O)c2ccc([N+](=O)[O-])cc2)CC1`, the “activity, negative = less viability” value was inactive: 10.1%.
